# Assay results taken from PubChem BioAssay AID1347165 (National Center for Advancing Translational Sciences (NCATS), 2019).
# The campaign covered roughly 220,000 compounds. About 5,700 (2.6%) were called active. Inconclusive results, whose numbers are uncertain, are shown with a selection of clear calls. Calls follow the shape of the dose curve; as a rule, active = well fitted inhibition curve with a large enough effect; inconclusive = small, poorly fitted or top-dose-only effect; inactive = no such curve, though single readings can be large or run the other way. Potencies of inconclusive entries are doubtful fits and often do not repeat.
# Target: Lysine-specific demethylase 5B (Homo sapiens) (UniProt Q9UGL1)
# Sequence of UniProt Q9UGL1 (Q9UGL1 whole entry, looked up): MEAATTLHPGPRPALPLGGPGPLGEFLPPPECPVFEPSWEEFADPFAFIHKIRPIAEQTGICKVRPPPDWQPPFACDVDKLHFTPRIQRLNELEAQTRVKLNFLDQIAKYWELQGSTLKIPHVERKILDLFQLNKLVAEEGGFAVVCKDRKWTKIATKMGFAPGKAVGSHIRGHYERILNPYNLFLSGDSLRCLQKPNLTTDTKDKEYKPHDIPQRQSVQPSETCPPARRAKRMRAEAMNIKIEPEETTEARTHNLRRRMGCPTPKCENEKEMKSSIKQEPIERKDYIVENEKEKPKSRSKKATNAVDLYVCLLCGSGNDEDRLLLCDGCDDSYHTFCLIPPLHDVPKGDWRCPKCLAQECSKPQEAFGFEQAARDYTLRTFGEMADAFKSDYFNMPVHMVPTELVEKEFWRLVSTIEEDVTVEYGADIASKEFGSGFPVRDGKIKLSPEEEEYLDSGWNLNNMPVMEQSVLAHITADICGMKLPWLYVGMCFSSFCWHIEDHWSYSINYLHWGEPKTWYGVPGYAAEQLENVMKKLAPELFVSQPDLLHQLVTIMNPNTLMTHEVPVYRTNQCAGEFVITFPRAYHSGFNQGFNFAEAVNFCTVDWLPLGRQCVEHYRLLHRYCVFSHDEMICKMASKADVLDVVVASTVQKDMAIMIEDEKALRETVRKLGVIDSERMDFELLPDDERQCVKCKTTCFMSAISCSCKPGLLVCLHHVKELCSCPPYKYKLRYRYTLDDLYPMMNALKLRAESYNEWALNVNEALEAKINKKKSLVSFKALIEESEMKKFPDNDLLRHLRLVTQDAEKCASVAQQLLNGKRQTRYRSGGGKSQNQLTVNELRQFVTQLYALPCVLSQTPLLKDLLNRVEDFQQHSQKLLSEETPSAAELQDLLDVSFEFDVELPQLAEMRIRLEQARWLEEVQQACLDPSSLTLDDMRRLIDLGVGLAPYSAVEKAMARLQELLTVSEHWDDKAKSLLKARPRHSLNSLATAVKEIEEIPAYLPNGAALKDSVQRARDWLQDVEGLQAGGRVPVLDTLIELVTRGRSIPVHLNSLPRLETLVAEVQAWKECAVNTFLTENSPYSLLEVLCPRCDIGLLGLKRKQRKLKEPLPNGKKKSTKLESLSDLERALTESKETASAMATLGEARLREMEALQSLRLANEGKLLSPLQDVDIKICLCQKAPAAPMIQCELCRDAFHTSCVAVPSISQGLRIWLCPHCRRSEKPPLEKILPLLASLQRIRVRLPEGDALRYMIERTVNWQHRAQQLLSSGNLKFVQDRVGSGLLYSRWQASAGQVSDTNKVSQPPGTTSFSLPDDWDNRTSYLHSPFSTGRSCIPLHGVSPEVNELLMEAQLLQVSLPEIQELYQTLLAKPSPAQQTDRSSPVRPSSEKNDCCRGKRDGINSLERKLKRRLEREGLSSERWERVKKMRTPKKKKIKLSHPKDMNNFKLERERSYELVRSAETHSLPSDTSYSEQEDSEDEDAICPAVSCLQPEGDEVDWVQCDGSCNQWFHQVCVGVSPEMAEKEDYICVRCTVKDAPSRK
# Experiment: Primary screen for KDM5B Histone Demethylases FDH-coupled qHTS; also: nearly all actives have a fitted effect of over 70% in size; as to activity change, negative = inhibition: 0% is about no effect
# Conditions: FDH-coupled NADH fluorescence (FDH is formaldehyde dehydrogenase); activity change, negative = inhibition: at 57.7 µM (top of the series) unless noted
# How it was run: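 Compound dilutions met 200 nM (final) KDM5BΔAP for 10 min at room temperature before substrate addition. The substrate mix held 12.5 µM H3K4me3 with cofactors 25 µM α-ketoglutarate and 50 µM Fe²⁺. NADH signal gain over 30 min defined activity.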
# Potency is read from the fitted curve at half-maximal effect; tags tell the direction and shape of the fitted curve.
SMILES,Potency,"activity change, negative = inhibition"
Cc1ccc(C(=O)/C=C/c2ccc(C#N)cc2)o1,inactive,–
CCCNC(=O)c1cc(-c2ccc(F)cc2)cn1C,"inconclusive: 35.5 µM [inhibitor, partial curve, poor fit]",–
COc1cc2c(cc1OC)-c1nnc(-c3cccnc3)n1C(C)(C)C2,inactive,–
C=CCN(C)C(=O)[C@@H](C)C1CC[C@@]2(C)Cc3sc(NC(=O)CC(C)(C)C)nc3[C@@H](C)[C@@H]2[C@H]1O (stereo partly specified),inactive,–
COCCCNc1ccc(C(=O)N2CCC(CN3CCCC3=O)CC2)cn1,"inconclusive: 28.2 µM [inhibitor, single point]",–
COc1ccc(OC)c(NC(=O)c2ccc(-c3nc(CSc4ccccc4)c(C)o3)cc2)c1,"inconclusive: 15.8 µM [inhibitor, partial curve, poor fit]",–
Nc1sccc1C(=O)NCc1ccncc1,"inconclusive: 14.1 µM [inhibitor, partial curve, poor fit]",–
CCn1ccc2sc(C)c(C(=O)N3CCOCC3)c2c1=O,"inconclusive: 28.2 µM [inhibitor, partial curve, poor fit]",–
COc1ccc(C2(C(=O)N3CCCN(c4cc(-c5ccc(C)c(C)c5)[nH]n4)CC3)CC2)cc1,"inconclusive: 15.8 µM [inhibitor, partial curve, poor fit]",–
CN1CCc2c([nH]c3ccccc23)C12CCN(C(=O)c1ccsc1)CC2,"inconclusive: 31.6 µM [inhibitor, partial curve, poor fit]",–
Cc1ccc(NC(=O)Cn2cc(S(=O)(=O)c3ccc(F)cc3)c(=O)c3cc4c(cc32)OCO4)cc1,"inconclusive: 35.5 µM [inhibitor, partial curve, poor fit]",–
COC(=O)c1ccc(/C=C2\Oc3ccccc3NC2=O)cc1,"inconclusive: 12.6 µM [inhibitor, partial curve, poor fit]",–
Cc1cccc(Oc2nc3ccccn3c(=O)c2/C=C(\C#N)c2nc3ccccc3s2)c1C,"inconclusive: 2.51 µM [inhibitor, full curve, poor fit]",–
CCN(CC)c1cc(CCC(=O)NCCCN2CCN(C)CC2)ccn1,active: 25.1 µM,–
COc1cc(Cl)c(C)cc1NC(=O)CCCN1C(=O)C(c2ccccc2)Oc2cccnc21 (stereo unspecified),"inconclusive: 3.16 µM [inhibitor, full curve, poor fit]",–
COCCNC(=O)Cn1c(=O)n(Cc2ccc(C(=O)NCCc3ccc(OC)c(OC)c3)cc2)c(=O)c2ccccc21,"inconclusive: 15.8 µM [inhibitor, partial curve, poor fit]",–
Cc1ccc(-c2cc(C(=O)NCc3ccccn3)c3ccccc3n2)cc1C,"inconclusive: 28.2 µM [inhibitor, partial curve, poor fit]",–
Cc1cc(NC(=O)CCSc2nnc3c(Cl)cc(C(F)(F)F)cn23)no1,inactive,–
O=C(Nc1ccc2oc(=O)ccc2c1)c1cc(Cl)ccc1Cl,"inconclusive: 39.8 µM [inhibitor, single point]",–
O=C(O)c1cccc(C2CCCN(C(=O)c3ccc4c(c3)ncn4CCO)C2)c1 (stereo unspecified),inactive,–
CCC(Oc1ccc(Cl)cc1)C(=O)O (stereo unspecified),inactive,–

SMILES,Potency,"activity change, negative = inhibition"
Cc1cccc(NC(=O)C(C)OC(=O)C2=CN3CCS(=O)(=O)N=C3C=C2)c1 (stereo unspecified),"inconclusive: 28.2 µM [inhibitor, partial curve, poor fit]",–
COc1ccccc1N1CCN(C(=O)C(C)Sc2nc(Cl)nc3nc[nH]c23)CC1 (stereo unspecified),inactive,–
CS(=O)(=O)N1CCCC(C(=O)NCc2ccc(OCC3CC3)nc2)C1 (stereo unspecified),inactive,–
COc1cc(NS(=O)(=O)c2ccccc2Br)c(C(=O)O)cc1OC,inactive,–
C(#CCN1CCN(C(c2ccccc2)c2ccccc2)CC1)COCc1ccccc1,"inconclusive: 39.8 µM [inhibitor, single point]",–
Oc1ccc2ccccc2c1C=NCCc1ccccc1,"inconclusive: 20 µM [inhibitor, partial curve, poor fit]",–
COc1c(Cl)cc(C(=O)Nc2cccc(-c3nc4ccccc4[nH]3)c2)cc1Cl,"inconclusive: 15.8 µM [inhibitor, single point]",–
Cc1ccc(C(=O)c2sc(Nc3ccccc3F)c(S(=O)(=O)c3ccccc3)c2N)c(C)c1,"inconclusive: 0.891 µM [inhibitor, full curve, poor fit]",–
Cc1cccc(/C=C/c2ccc3c([N+](=O)[O-])cccc3n2)c1,inactive,–
Cc1ccsc1-c1nc(-c2ccc3c(c2)CCO3)cs1,"inconclusive: 28.2 µM [inhibitor, single point]",–
CCCn1c(CSc2nnc(C3CC3)n2C2CC2)nc2cc(S(=O)(=O)N(C)C)ccc21,inactive,–
CC(=O)Nc1ccc(S(=O)(=O)Nc2ccc(-c3nncn3C)cc2)cc1,inactive,–
COCc1cc(=O)n(CC(=O)Nc2cc(C)ccc2OC)c(N2CCOCC2)n1,"inconclusive: 31.6 µM [inhibitor, partial curve, poor fit]",–
COc1ccc2cnn(CC(=O)N3CCN(Cc4ccccc4)CC3)c(=O)c2c1OC,"inconclusive: 31.6 µM [inhibitor, single point]",–
COc1ccccc1CN1CC[C@@H](CO)N(C)c2nc(C)ccc2C1,"inconclusive: 31.6 µM [inhibitor, partial curve, poor fit]",–
Cc1cc(C)c(S(=O)(=O)Nc2cc(-c3cn4ccccc4n3)ccc2C)cc1C,"inconclusive: 31.6 µM [inhibitor, partial curve, poor fit]",–
Cc1cccn2c(CNCCc3ccccn3)c(C(=O)N3CCOCC3)nc12,"inconclusive: 25.1 µM [inhibitor, partial curve, poor fit]",–
CCC1CN(S(=O)(=O)c2cc(-c3cc(C)no3)ccc2OC)c2cc(C)ccc2O1 (stereo unspecified),–,inconclusive: -32.2% [inhibitor]
Cc1ccc2[nH]c(=O)c(CN3CCCN(c4ccncc4)CC3)cc2c1,"inconclusive: 20 µM [inhibitor, partial curve, poor fit]",–
O=C(c1ccco1)N1CCC(Oc2ccccc2-c2nc(-c3ccccc3)no2)C1 (stereo unspecified),"inconclusive: 28.2 µM [inhibitor, partial curve]",–
